Laboratory results from the CheMixHub viscosity set.
This continues a long series; more values of the same kind are listed elsewhere.

Experiment: xn = mol fraction of the nth substance listed
Conditions: 101 kPa

CN(C)CCCN + O
viscosity [mPa·s]
Conditions	303.15 K	308.15 K	313.15 K	318.15 K	323.15 K
x1 = 0.0488	–	2.023	1.741	1.52	1.336
x1 = 0.0999	–	4.07	3.359	2.816	2.393
x1 = 0.147	–	5.721	4.635	3.821	3.206
x1 = 0.1743	–	6.315	5.089	4.176	3.485
x1 = 0.1999	–	6.616	5.316	4.362	3.618
x1 = 0.2247	–	6.643	5.356	4.387	3.635
x1 = 0.2497	–	6.499	5.248	4.301	3.572
x1 = 0.2744	–	6.216	5.023	4.132	3.444
x1 = 0.2998	–	5.812	4.723	3.904	3.265
x1 = 0.3238	6.728	5.416	4.423	3.672	3.081
x1 = 0.3744	5.564	4.54	3.757	3.155	2.673
x1 = 0.3988	5.044	4.143	3.448	2.905	2.475
x1 = 0.4365	4.326	3.586	3.013	2.566	2.205
